# Source: the supplement of paper PMC3334620
# In all, about 33,000 sequences were measured (“E-score (-0.5 to 0.5)”: median about -0.016, highest 2% from about 0.31 on). This is one part of the list.
# Target: Cst6 (UniProt P40535)
# Experiment: PBM E-score (8-mer binding enrichment) (E-score (-0.5 to 0.5)); higher = stronger / more preferred TF binding; most listed sequences are background and not binding sites
# Settings: protein concentration: 200 nM; construct: GST-DNA-binding domain
# Experimental: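 Universal 'all 10-mer' protein binding microarrays (Agilent AMADID 015681) probed with GST-tagged S. cerevisiae TFs (full-length or DBD) made by in vitro transcription/translation (PURExpress), about 100-200 nM. Bound TF was detected with fluorescent anti-GST. Each ungapped 8-mer (which stands for itself and its reverse complement) is scored by the PBM enrichment score (E-score), a modified Wilcoxon-Mann-Whitney statistic from -0.5 to +0.5, computed with the Universal PBM Analysis Suite. Scale: above 0.35 generally sequence-specific binding.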
row,Sequence,PBM E-score
1,CCCGCCCC,0.118
2,TAGCTTAA,-0.0115
3,ACTATGCA,-0.035
4,TAATATAA,0.358
5,GAAGCGCC,0.114
6,GCTGACTA,-0.134
7,GACGCAAA,0.301
8,GCGCTGAA,-0.175
9,AAGAAAAA,0.103
10,ATGACCTG,0.0198
11,ACGCACCG,0.0946
12,CGTTGCGA,-0.00168
13,CTACTGAG,-0.141
14,TCCAAAGA,0.0439
15,CCTCAATA,-0.00327
16,ATTACTGA,0.255
17,AAGATGTG,0.0614
18,GGACTACC,-0.296
19,ACGCCCAC,0.0218
20,GGTTGTGA,0.194
21,TTAGACAA,0.148
22,GGCGTCTA,0.0648

row,Sequence,PBM E-score
1,AAACACCT,0.164
2,TATCGTGA,0.0604
3,AGGTGTAC,-0.013
4,AGTTCCAT,0.0719
5,GAGTACCA,-0.00811
6,CACACGCA,-0.203
7,CACACCGG,-0.195
8,CCGGTGCG,-0.0389
9,CAGTGGTC,-0.182
10,GGTCCTGA,-0.184
11,GGTAACAC,0.0481
12,CCTGGTAG,-0.276
13,CCTTATAC,0.0209
14,CAGTCACG,-0.0488
15,CCCGAACC,-0.344
16,CAAACCAG,-0.0964
17,CCTAAGCC,-0.363
18,TAATGCGA,0.137
19,CTTTCACC,0.0693
20,ATATACCG,0.112
21,CGCAGCTA,0.054
22,AGTACACC,-0.104

row,Sequence,PBM E-score
1,ACTCCACT,-0.0896
2,CTGCCAGA,-0.192
3,ACAGCTTG,0.0214
4,ACCGTCCG,-0.187
5,AATTTTCA,0.124
6,GACACTCA,0.0662
7,CCACTCTA,0.00292
8,AAATATTT,0.246
9,CTGCTGGC,-0.342
10,TACAAGGA,0.0984
11,GGCTCCTA,-0.29
12,AAATTCTT,0.0859
13,CTTCACCC,0.0725
14,TATCTGCA,0.12
15,ACCTCCCG,-0.23
16,AATCCGGT,0.0129
17,CAGGGGAC,-0.334
18,CGATGGCG,-0.118
19,CTTGAACA,-0.0112
20,CAAGAGCC,0.0635
21,AAGCCGGA,0.00634
22,AACGTCGC,0.195

row,Sequence,PBM E-score
1,CACTGGGC,-0.23
2,GCTAATCC,0.0353
3,CAAGATCG,0.0147
4,CTGTGGAA,-0.0942
5,CTGTAAGC,0.0489
6,GGTGCATA,-0.00991
7,TTGAGAAA,0.173
8,GCGGACCA,0.0449
9,ATGTAATA,0.415
10,AAACAATA,0.296
11,AGTCTCTC,-0.206
12,GTCTCGAA,-0.154
13,ATTGGCAG,-0.165
14,TATCTTGA,0.0541
15,CAGCAAAG,-0.0415
16,ACGCTGCC,-0.168
17,GACTAGAC,-0.263
18,CAAACACG,0.199
19,TGCGCTAA,0.0508
20,GCCGTTCC,0.242
21,GAAACCAC,0.0157
22,GTTACGAA,0.16

row,Sequence,PBM E-score
1,ACGTGCAA,0.068
2,CAGCCCGC,-0.322
3,CGCTCCTC,-0.265
4,TAACCAGA,-0.0457
5,ACTGCCAT,0.0641
6,ACAATATA,0.253
7,CTATGCAA,-0.0537
8,CTCCAGTA,-0.114
9,ACGGTACC,-0.0593
10,ATGTACAA,0.0408
11,CCACAACA,-0.124
12,ACATGGAA,-0.0129
13,ACACCGGT,-0.237
14,GAGTCACA,0.0692
15,CGACCAGC,-0.102
16,ACATTATC,0.165
17,AATTCCTA,0.138
18,CTAGGCAG,-0.211
19,GTCGCAAA,0.0922
20,ATCCTCTC,-0.189
21,GGGAGGCA,-0.2
